# PubChem BioAssay (NCATS)
# Values joined by “and” are separate entries in the source; they are usually repeats but may differ in a detail not shown here. Equal values may be shown once. Some of the results follow. Shown are side measurements of this screen, not its main read-out; they come without a call. Compounds called inactive in the main read-out are mostly missing here. For some of these results: The note in brackets gives the kind of curve behind each potency; many fits are weak.
# Experiments:
# [1] = qHTS Assay for Lipid Storage Modulators (AID 1519); details: Drosophila S3 cells, BODIPY lipid droplet/cell ratio, laser cytometry, cells loaded with oleic acid
# Method in brief: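 Cells seeded at 5,000 per well were treated with compounds over a concentration series and loaded with oleic acid (400 uM, as added). Lipid droplet fluorescence (488 nm excitation, 500-530 nm channel) was read by laser-scanning cytometry and normalized to 20 uM Triacsin C.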
# [2] = qHTS Validation Assay to Find Inhibitors of Chronic Active B-Cell Receptor Signaling (AID 485345); details: ABC-DLBCL cells, chronic BCR signaling reporter
# Method in brief: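 Read-out: ratio of filter-corrected green (IkappaBalpha fusion) to red (native) luciferase signal in doxycycline-induced TMD8 cells after 4 h at 37C. Titration spanned 46 uM–3 nM; Data were normalised to basal cells and 10 uM MG-132 wells.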
# [3] = Nrf2 qHTS screen for inhibitors: Validation (AID 493153); details: A549 ARE-Fluc reporter, 18-24 h; AC50: CellTiter-Fluor fluorescence read, measured here: cytotoxicity CellTiter-Fluor AC50; viability change: measured here: cytotoxicity max response
# Method in brief: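 A549 cells carrying ARE-firefly luciferase reporter, 5000 cells/well in 5% FBS OPTI-MEM, treated with compound over a concentration series for 18-24 h at 37 C. Luciferase luminescence gave Nrf2 activity; CellTiter-Fluor fluorescence gave viability.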
# [4] = qHTS Assay for Inhibitors of PDE-IV (AID 607); details: HEK293 ACTOne CNG channel cells, membrane potential fluorescence; measured here: parental cell counter-screen;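 also: parental cells stimulated with forskolin 10 µM plus RO 20-1724 100 µM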
# Method in brief: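 HEK293 ACTOne cells with CNG channel (1000/well), endogenous PDE4; membrane potential dye, compounds up to 22.9 uM final. Fluorescence Ex 535/Em 590; RO 20-1724 (100 uM final) as reference.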
# [5] = qHTS assay for small molecule antagonists of peroxisome proliferator-activated receptor delta signaling (AID 588535); details: HEK293T PPARd-UAS-bla, beta-lactamase FRET ratio, 18 h; 460 nm channel;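 also: cells co-treated with a PPAR-delta agonist as stimulator during compound exposure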
# Method in brief: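 HEK293T PPAR-delta-UAS-bla cells, 4000/well, 2% charcoal/dextran FBS; 5 h 37 C; cpd titration; 18 h 37 C; CCF4 2 h RT; FI 460/530 nm; Hill fit → IC50, efficacy.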
# [6] = qHTS assay for small molecule agonists of retinoid X receptor alpha signaling (AID 588544); details: HEK293T RXRa-UAS-bla, beta-lactamase reporter, 18 h; 530 nm emission
# [7] = qHTS assay for small molecule antagonists of retinoid X receptor alpha signaling (AID 588546); details: HEK293T RXRa-UAS-bla, beta-lactamase ratio, antagonist mode; measured here: W530 green channel, cytotoxicity proxy;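 also: cells stimulated with 9-cis-retinoic acid as agonist; % is scaled to controls: 0 for no effect and ±100 for the full control effect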
# Method in brief: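 Beta-lactamase reporter inhibition, read as CCF4 fluorescence ratio (ex 405, em 460/530 nm) after 2 h at RT. HEK293T UAS-bla cells, 2500/well, were stimulated with 9-cis-RA at 500 or 100 nM final alongside test compound for 18 h at 37 C.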
# [8] = qHTS assay for small molecule antagonists of androgen receptor signaling (AID 588516); details: AR-UAS-bla HEK293, beta-lactamase ratio, antagonist mode, 16 h
# Method in brief: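 Cells were plated and incubated 5 h, compounds added in titration, then R1881 (10 nM final) as agonist. After 16 h at 37 C, CCF4 substrate was loaded for 2 h at room temperature and fluorescence measured.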
# [9] = qHTS assay for small molecule antagonists of glucocorticoid receptor signaling (AID 588533); details: HeLa MMTV-bla, GRE beta-lactamase ratio, antagonist mode, 18 h; measured here: W530 channel AC50;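 also: cells stimulated with 2 nM dexamethasone as agonist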
# [10] = qHTS assay for small molecule antagonists of vitamin D receptor signaling (AID 588541); details: HEK293T VDR-UAS-bla, beta-lactamase ratio, antagonist mode; measured here: W460 blue channel (cell viability)
# [11] = qHTS assay for small molecule antagonists of peroxisome proliferator-activated receptor gamma signaling (AID 588537); details: HEK293 PPARg-UAS-bla, beta-lactamase ratio, antagonist mode; measured here: W460 blue channel
# Method in brief: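 Antagonist mode, beta-lactamase reporter in HEK293; charcoal/dextran FBS 1%; 3000 cells/well, 37 C 6-6.5 h; cpd titration + rosiglitazone 50 nM final, 16 h 37 C; CCF4, 2 h RT; 460/530 nm; Hill fit → IC50, efficacy.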
# [12] = S16 Schwann cell PMP22 intronic element beta-lactamase assay (AID 624044); details: S16 rat Schwann cells, PMP22 element beta-lactamase FRET, 24 h; measured here: 460 nm blue channel; also: nearly all actives have a fitted effect of over 15% in size
# Method in brief: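 Rat S16 Schwann cells with beta-Lac driven by a PMP22 intronic element, compound-treated 24 h at 37 °C. LiveBLAzer FRET B/G read: 460 nm normalized to potassium clavulanate vs DMSO; 535 nm FRET as viability; concentration-effect curves classified.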
# [13] = measured here: cell count channel max response
# [14] = measured here: cell number channel AC50
# [15] = measured here: lipid (BODIPY) channel AC50
# [16] = measured here: lipid channel max response
# Tags tell the direction and shape of the fitted curve.
structure (smiles),measurement,setting,value
CN(C)CCCc1cc(C(=O)Nc2ccc(-c3ccncc3)cc2)ccc1O,max response,[1]; [13],71.1%
same,AC50,[1]; [14],"1.12 µM [rising, full curve, poor fit]"
same,AC50,[1]; [15],"14.1 µM [rising, partial curve, poor fit]"
same,max response,[1]; [16],98.1%
same,AC50,[2]; measured here: CBG/CBR ratio read-out,"16.4 µM [falling, partial curve]"
same,AC50,[2]; measured here: CBR control luciferase (viability counter),"10.3 µM [falling, partial curve]"
same,viability change,[3],-1.86%
COc1cccc(Cn2c(=O)c(CCc3ccccc3)nc3cnc(OC)nc32)c1,AC50,[4],"12.6 µM [rising, partial curve]"
same,max response,[1]; [13],20.8%
same,AC50,[1]; [14],"0.0224 µM [rising, full curve, poor fit]"
same,AC50,[1]; [15],"0.0251 µM [rising, full curve, poor fit]"
same,max response,[1]; [16],28.2%
CCc1ccccc1OC[C@@H](O)CN[C@H]1CCCc2ccccc21,AC50,[4],"15.8 µM [rising, partial curve]"
same,max response,[1]; [13],-10.8%
same,AC50,[1]; [14],"7.08 µM [rising, full curve]"
same,AC50,[1]; [15],"7.94 µM [rising, partial curve]"
same,max response,[1]; [16],-81.2%
NC(=O)c1cnccn1,max response,[1]; [13],-0.0576%
same,AC50,[1]; [14],"11.2 µM [falling, partial curve, poor fit]"
same,AC50,[1]; [15],"11.2 µM [falling, partial curve, poor fit]"
same,max response,[1]; [16],3.93%
same,max response,[5],-25.5%
same,max response,[6],1.27%
same,max response,[7],-10.9%
Cc1ccccc1-c1nc(N(C)Cc2ccco2)c2ccccc2n1,AC50,[4],"15.8 µM [rising, single point]"
same,max response,[1]; [13],37%
same,AC50,[1]; [14],"1.26 µM [rising, full curve]"
same,AC50,[1]; [15],"1.12 µM [rising, full curve]"
same,max response,[1]; [16],41.4%
O=C1CC2(CCCC2)CC(=O)N1CCCCNC[C@H]1COc2ccccc2O1,AC50,[4],"12.6 µM [rising, partial curve, poor fit]"
same,max response,[1]; [13],38.4%
same,AC50,[1]; [14],"14.1 µM [rising, partial curve, poor fit]"
same,AC50,[1]; [15],"25.1 µM [rising, partial curve, poor fit]"
same,max response,[1]; [16],46.5%
O=c1cc(-c2ccccc2)oc2cc(O)cc(O)c12,max response,[1]; [13],111%
same,AC50,[1]; [14],"35.5 µM [rising, partial curve]"
same,AC50,[1]; [15],"31.6 µM [rising, partial curve, poor fit]"
same,max response,[1]; [16],126%
same,AC50,[8]; measured here: W460 blue channel fit,"8.91 µM [rising, full curve, poor fit]"
same,AC50,"[8]; measured here: W530 green channel, cytotoxicity/artifact","15.8 µM [rising, full curve, poor fit]"
same,AC50,[9],"12.6 µM [falling, full curve, poor fit]"
same,max response,[5],36.7%
same,AC50,[10],"7.94 µM [rising, partial curve, poor fit]"
same,max response,[7],37.6%
CC1=C(/C=C/C(C)=C/C=C/C(C)=C/CO)C(C)(C)CCC1,max response,[1]; [13],36.5% and 75.1%
same,AC50,[1]; [14],"28.2 µM [rising, single point] and 31.6 µM [rising, partial curve, poor fit]"
same,AC50,[1]; [15],"35.5 µM [rising, single point] and 31.6 µM [rising, partial curve, poor fit]"
same,max response,[1]; [16],55.7% and 79.2%
same,max response,[5],262% and 87.1%
same,AC50,[11],"44.7 µM [rising, single point] and 25.1 nM [falling, full curve, poor fit]"
same,AC50,[10],"39.8 µM [rising, partial curve, poor fit]"
same,max response,[6],3.32% and 28.7%
same,AC50,[12],"0.999 µM [falling, full curve, poor fit]"
Cc1noc(NS(=O)(=O)c2cccc3c(N(C)C)cccc23)c1C,AC50,[4],"15.8 µM [rising, single point]"
same,max response,[1]; [13],92.4%
same,AC50,[1]; [14],"31.6 µM [rising, partial curve]"
same,AC50,[1]; [15],"31.6 µM [rising, partial curve]"
same,max response,[1]; [16],124%
COc1c(-c2ccccc2)oc2c(ccc3occc32)c1=O,AC50,[4],"15.8 µM [rising, partial curve]"
same,max response,[1]; [13],91.5%
same,AC50,[1]; [14],"0.398 µM [rising, full curve, poor fit]"
same,AC50,[1]; [15],"0.282 µM [rising, full curve, poor fit]"
same,max response,[1]; [16],128%
O=C(NCCCN1CCCCCC1)[C@@H](c1ccccc1)C1CCCCC1,AC50,[4],"12.6 µM [rising, partial curve]"
same,max response,[1]; [13],35.7%
same,AC50,[1]; [14],"7.08 µM [rising, full curve, poor fit]"
same,AC50,[1]; [15],"7.08 µM [rising, full curve, poor fit]"
same,max response,[1]; [16],43.4%
Cc1cc(C(C)(C)CC(C)(C)C)ccc1OCCOCC[N+](C)(C)Cc1ccccc1,max response,[1]; [13],-55% and -45.3%
same,AC50,[1]; [14],"15.8 µM [falling, single point] and 20 µM [falling, partial curve]"
same,AC50,[1]; [15],"15.8 µM [falling, partial curve, poor fit] and 10 µM [falling, partial curve]"
same,max response,[1]; [16],-99.7% and -111%
same,AC50,[11],"31.6 nM [falling, full curve, poor fit]"
same,max response,[6],40.5%
same,max response,[7],9.67%
CS(=O)(=O)Nc1ccc([N+](=O)[O-])cc1Oc1ccccc1,AC50,[4],"15.8 µM [rising, partial curve, poor fit]"
same,max response,[1]; [13],49.9%
same,AC50,[1]; [14],"39.8 µM [rising, single point]"
same,AC50,[1]; [15],"39.8 µM [rising, single point]"
same,max response,[1]; [16],48%
same,AC50,[3],"9.2 µM [falling, partial curve]"
same,viability change,[3],-35.5%
